From PMC4336329 (PLoS ONE, 2015)
The whole screen tested about 310,000 compounds, of which about 2,200 (0.71%) showed an effect of 50% or more. The effect is printed as a negative number. Some of the results follow.

Biological target: human ether-à-go-go-related gene (hERG) potassium channel (human, UniProt Q12809)
Experiment: primary screen, population patch clamp on CHO cells stably expressing hERG

Chain of human ether-à-go-go-related gene (hERG) potassium channel (Q12809 whole entry, looked up): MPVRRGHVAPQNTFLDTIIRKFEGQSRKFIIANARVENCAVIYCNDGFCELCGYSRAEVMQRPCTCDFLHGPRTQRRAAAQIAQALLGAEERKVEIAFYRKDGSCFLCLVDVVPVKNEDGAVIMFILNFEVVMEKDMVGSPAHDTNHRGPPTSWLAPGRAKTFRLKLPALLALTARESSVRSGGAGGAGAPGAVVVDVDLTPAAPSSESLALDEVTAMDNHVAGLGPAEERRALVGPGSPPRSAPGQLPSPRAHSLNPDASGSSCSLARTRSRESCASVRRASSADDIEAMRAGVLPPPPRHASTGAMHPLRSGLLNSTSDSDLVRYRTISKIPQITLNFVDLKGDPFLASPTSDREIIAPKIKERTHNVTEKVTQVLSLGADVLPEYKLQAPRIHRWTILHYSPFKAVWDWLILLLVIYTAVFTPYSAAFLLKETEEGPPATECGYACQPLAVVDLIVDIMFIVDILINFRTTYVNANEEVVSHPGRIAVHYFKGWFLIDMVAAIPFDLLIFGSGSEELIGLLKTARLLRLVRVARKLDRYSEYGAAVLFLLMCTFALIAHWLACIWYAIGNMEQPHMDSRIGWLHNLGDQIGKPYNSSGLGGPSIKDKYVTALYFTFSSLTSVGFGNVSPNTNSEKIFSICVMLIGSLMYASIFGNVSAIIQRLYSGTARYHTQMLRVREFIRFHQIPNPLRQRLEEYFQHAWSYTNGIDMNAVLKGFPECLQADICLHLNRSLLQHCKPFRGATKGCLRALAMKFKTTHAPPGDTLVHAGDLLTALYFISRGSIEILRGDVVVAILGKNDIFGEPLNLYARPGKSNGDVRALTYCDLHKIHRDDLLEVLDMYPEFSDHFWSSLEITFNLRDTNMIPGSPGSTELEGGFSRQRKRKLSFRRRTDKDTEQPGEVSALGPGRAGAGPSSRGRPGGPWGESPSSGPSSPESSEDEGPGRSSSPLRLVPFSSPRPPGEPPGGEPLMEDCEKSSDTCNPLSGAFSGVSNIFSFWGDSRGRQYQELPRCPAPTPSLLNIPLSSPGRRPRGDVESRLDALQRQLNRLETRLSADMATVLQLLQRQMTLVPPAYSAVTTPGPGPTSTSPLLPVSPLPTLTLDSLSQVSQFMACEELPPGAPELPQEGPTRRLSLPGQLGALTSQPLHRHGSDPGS

Row | Compound | hERG current change (%, negative = inhibition) at 1uM
1 | CCN(CC)C(=O)CSc1nc2sc(C)c(C)c2c(=O)[nH]1 | 2.42%
2 | COc1cc(/C=N/NC(=O)CCn2c3ccccc3c3ccccc32)ccc1O | 9.33%
3 | Cc1csc(NC(=O)c2sccc2C)n1 | 16%
4 | CCN(C(=O)Cn1cc(C(C)=O)c2ccccc21)c1ccccc1 | 16.5%
5 | O=C(/C=C/Nc1ccc(Br)cc1F)c1ccco1 | 5.17%
6 | Nc1ccccc1C(=O)NNc1c2ccccc2nc2ccccc12 | 14.1%
7 | COc1ccc(NC(=O)COC(=O)c2c(F)cccc2Cl)cc1OC | -2.71%
8 | CCOC(=O)c1ccc2c(c1)C1C=CCC1C(C(=O)O)N2 (stereo not drawn) | 15.7%
9 | O/N=C/c1cn(-c2ccccc2)nc1-c1cccnc1 | -6.72%
10 | O=C(NCc1ccccn1)c1cc2n(n1)C(C(F)(F)F)CC(c1ccco1)N2 (stereo not drawn) | 7.4%
11 | COCCNC(=S)N1CCc2cc(OC)c(OC)cc2C1c1cccs1 (stereo not drawn) | 12.3%
12 | O=C(CSc1ccccc1[N+](=O)[O-])NC1CCS(=O)(=O)C1 (stereo not drawn) | 24.1%
13 | O=C(NCC1CCCO1)c1cccc(Oc2ccccc2)c1 (stereo not drawn) | -19.2%
14 | COc1ccc(C(=O)Oc2cc(C)[nH]c(=O)c2[N+](=O)[O-])c(OC)c1 | 8.56%
15 | Cc1cccc(-c2noc(CNC(=O)COc3ccccc3C)n2)c1 | 12.2%
16 | COc1ccccc1NC(=O)CSc1nnc(C2CCCCC2)n1N | 10.3%
17 | COC(=O)c1ccccc1NC(=O)CSc1nnc(-c2ccc(OC)cc2)n1C | -5.29%
18 | Cc1ccc2nc(SCC(=O)N(C)C3CCS(=O)(=O)C3)[nH]c2c1 (stereo not drawn) | 8.96%
19 | O=C(CCCN1C(=O)/C(=C/c2ccccc2)SC1=S)NCCCn1ccnc1 | -11%
20 | CC(=O)c1c(C)[nH]c(C(=O)NC2CCSc3ccccc32)c1C (stereo not drawn) | 14.5%
21 | COc1ccccc1C(C(=O)NCc1ccccc1)N(C(=O)c1csnn1)C1CC1 (stereo not drawn) | 7.78%
22 | COc1cc2nc(CN3CC=C(c4ccccc4)CC3)[nH]c(=O)c2cc1OC | 8.35%
23 | COc1ccccc1C(=O)C1CCCN(C(=O)CCC(=O)c2ccccc2)C1 (stereo not drawn) | -0.0025%

Row | Compound | hERG current change (%, negative = inhibition) at 1uM
24 | CCOC(=O)Cc1csc(SCC(=O)NC2CCCCC2)n1 | 11.9%
25 | O=C(c1cccc(Cl)c1Cl)N1CCN(c2ccccn2)CC1 | 17%
26 | NC(=O)CC(NC(=O)c1ccc(Br)cc1)c1ccc(NCc2ccc(F)c(F)c2)c([N+](=O)[O-])c1 (stereo not drawn) | 8.1%
27 | Cn1c(SCC#N)nnc1-c1cnccn1 | 4.11%
28 | CCN(CC)C(=O)Oc1cc2c(-c3cc4cccc(OC)c4o3)cc(=O)oc2cc1C | 16.5%
29 | Cc1ccc(SCc2c(C(=O)N/N=C/c3ccoc3)nnn2-c2nonc2N)cc1 | 13.2%
30 | CC(C)C(=O)Nc1ncc(Cc2ccc(Cl)cc2)s1 | 9.12%
31 | O=C(OCCO)c1cc(Cl)c(C(=O)OCCO)cc1Cl | 14.9%
32 | CCCCC(=O)Nc1cccc(NC(=O)c2ccc(Br)o2)c1 | -0.387%
33 | CCc1ccc(NC(=O)COC(=O)CCC2CCCC2)cc1 | 1.79%
34 | CC1=C([N+](=O)[O-])C(c2ccccc2)NC(=O)N1 (stereo not drawn) | 18.4%
35 | O=C(NC1CCCCC1)c1ccc2[nH]c(=O)c(=O)[nH]c2c1 | 20.5%
36 | CC(C)C1N=C2c3ccccc3N=C(SCC#N)N2C1=O (stereo not drawn) | 19.2%
37 | CCc1ccc(-c2nc(CS(=O)CC(=O)NCc3ccc4c(c3)OCO4)c(C)o2)cc1 (stereo not drawn) | 11.3%
38 | O=C(CN(C(=O)CNS(=O)(=O)c1ccccc1)c1ccc(Cl)cc1)NCC1CCCO1 (stereo not drawn) | 17%
39 | Cc1ccc(S(=O)(=O)CC(=O)Nc2c(C)n(C)n(-c3ccccc3)c2=O)cc1 | 10.9%
40 | CCOc1ccc(Nc2nnc(SCc3nc4ccccc4c(=O)[nH]3)s2)cc1 | 3.99%
41 | Cc1cc(C)nc(N2CCCC(C(=O)NCc3ccc4c(c3)OCO4)C2)n1 (stereo not drawn) | 6.18%
42 | C=CCN(c1ccccc1)S(=O)(=O)c1cccc(C(=O)Nc2ncccc2C)c1 | 3.66%
43 | O=C(c1ccco1)N1CCN(c2ccc(S(=O)(=O)N3CCCC3)cc2)CC1 | -8.46%
44 | CCN(Cc1nc(-c2cccc(C)c2)no1)C(=O)c1ccco1 | 7.53%
45 | O=C(O)CCc1ccccc1OC(=O)c1ccccc1 | 10.8%
46 | NC(=S)N=Nc1c(O)n(C2OC(=O)c3ccccc32)c2ccccc12 (stereo not drawn) | 6.86%

Row | Compound | hERG current change (%, negative = inhibition) at 1uM
47 | COc1ccc(-c2cc(C(=O)c3c(N)n(C)c(=O)n(C)c3=O)c3ccccc3n2)cc1 | 6.23%
48 | Cc1nc(C)c(Oc2cccc(C(F)(F)F)c2)c(=O)[nH]1 | 7.38%
49 | Cc1ccc(NC(=O)N2CCN(Cc3ccc4c(c3)OCO4)CC2)cc1 | 9.3%
50 | Cc1nc(-c2cccc(NS(C)(=O)=O)c2)cs1 | -6.36%
51 | COc1cccc(CN2C(=O)CCC2(C)C(=O)NC2CCCCC2)c1 (stereo not drawn) | 13.4%
52 | CC(C)=C(NC(=O)c1ccccc1)C(=O)Nc1ccc(C(=O)O)cc1 | 10.3%
53 | Cc1csc(NC(=O)CCCc2cccs2)n1 | 1.69%
54 | CCCC(=O)C1=C(O)C(C(=O)OC)C(C)(C)CC1=Nc1ccc(C)cc1 (stereo not drawn) | 7.7%
55 | CCC(SC1=Nc2ccccc2C2=NC(CC(C)C)C(=O)N12)C(=O)Nc1ccc2c(c1)OCO2 (stereo not drawn) | -5.83%
56 | CCc1ccc(N2CC(C(=O)N3CCCC3)CC2=O)cc1 (stereo not drawn) | 0.094%
57 | Cc1cccc(COCC(CC(C)C)N2CCN(C(=O)c3ccc(C(F)(F)F)cc3)CCC2=O)c1 (stereo not drawn) | -3.92%
58 | O=C(NC(Cc1c[nH]c2ccccc12)c1nnc2n1CCCCC2)c1cccs1 (stereo not drawn) | 5.3%
59 | CSc1ccc(/C=C(/NC(=O)c2ccccc2)C(=O)NCCN2CCOCC2)cc1 | -10.3%
60 | CC(=O)N1c2ccccc2C(CBr)=CC1(C)C | 5.69%
61 | COc1ccc(NC(=O)CN(C)CC(=O)Nc2ccccc2SC)cc1Cl | -1.3%
62 | O=C(NCc1ccccc1)c1noc2c1CCCC2 | -3.07%
63 | O=CN1N=C(c2ccccc2)CC1c1ccccc1[N+](=O)[O-] (stereo not drawn) | 12.7%
64 | Cc1ccc(C)c(NC(=O)c2ccccc2C(=O)c2ccccc2)c1 | 19.8%
65 | Cc1cc2ncn(C3CC(=O)N(Cc4ccccc4)C3=O)c2cc1C (stereo not drawn) | 10.1%
66 | Cc1nc2ccc(Cl)cn2c1P(=S)(N1CCOCC1)N1CCOCC1 | 2.37%
67 | COc1cccc(NC(=O)COC(=O)c2cc(=O)c3ccccc3o2)c1 | 10.9%
68 | COc1ccccc1N1CCN(CCCCNC(=O)c2ccc3ccccc3c2)CC1.Cl | -75.8%
69 | CN1CCN(CC(=O)Nc2ccc(OCc3ccccc3)cc2)CC1.Cl | 9.44%

Row | Compound | hERG current change (%, negative = inhibition) at 1uM
70 | CC(=O)Cc1nsc(NC(=O)c2ccc(Br)o2)n1 | 12.4%
71 | C=CCn1c(O)c(C(CC)=Nc2ccccc2NC(C)=O)c(=O)[nH]c1=O | -4.37%
72 | O=C(Nc1cc(C(=O)N2CCN(c3ccccc3O)CC2)ccc1Cl)c1cccs1 | -18.5%
73 | CC(C)NC(=O)c1ccc2c(c1)N(CC(=O)N1CCCC1)C(=O)C(C)(C)O2 | 5.9%
74 | Cc1ccc(NC(=O)CSc2nnc(-c3ccco3)o2)c(C)c1 | 17.5%
75 | CCC(=O)NC(C)c1cc(Cl)c2cccnc2c1O (stereo not drawn) | 14.8%
76 | CCCCCCCCNC(=O)c1cnsn1 | -1.95%
77 | CCCCC(=O)NNC(=S)NC(=O)C(c1ccccc1)c1ccccc1 | 12.3%
78 | O=C1CC(/C=C/c2ccc([N+](=O)[O-])cc2)=Nc2ccccc2N1 | -1.54%
79 | O=c1c2c3c(sc2nc(NCCO)n1CCc1ccccc1)CCCCC3 | 7.46%
80 | CC(=O)C1=C(C)NC(SCC(=O)c2cc(Cl)ccc2Cl)=C(C#N)C1c1ccco1 (stereo not drawn) | 11.1%
81 | CCOc1ccccc1N(CC(=O)O)S(=O)(=O)c1ccccc1 | 30.2%
82 | COc1ccc(Cl)cc1NC(=O)C1CCCN(S(C)(=O)=O)C1 (stereo not drawn) | 11.7%
83 | CC1=C(C(=O)Nc2ccc(Cl)cc2)C(c2ccco2)NC(=O)N1 (stereo not drawn) | 14.4%
84 | COc1ccc(C(=O)NCC(=O)N/N=C(\C)Cc2ccccc2)cc1 | 16.1%
85 | COc1cccc(C(=O)NNC(=O)c2ccccc2-n2cccc2)c1 | 22.8%
86 | COc1ccc(N2C(=O)C(=O)/C(=C(/O)c3ccc(C)cc3)C2c2cccnc2)cc1 (stereo not drawn) | -3.2%
87 | CCc1ccc2c(c1)C(=O)C(=O)N2CC(=O)Nc1ccc(NC(=O)c2ccccn2)cc1 | 11.5%
88 | Oc1oc(-c2ccc(Br)cc2)nc1/C=N/c1ccccn1 | 4.27%
89 | CCn1c(SCC(=O)Nc2nccs2)nnc1-c1ccc(C)cc1 | -4.92%
90 | O=c1cc(-c2ccc(O)cc2)oc2ccc(O)cc12 | 5.62%
